Lines with a small IC50 respond at low doses; where the fit passes the top or lowest dose, that dose stands as a limit. For AUC the same curve is integrated over the 256-fold range of doses and scaled to a fraction; values near 1 show little effect. For part of these data: Where the top dose is marked as inferred, it is not printed in the source and was worked back from the curve model. For part of these data: An entry number marks a drug with two screens in the source, which often give different values.
Experiments:
Assay in all cases: Viability of human cancer cell lines after 72 h of drug (GDSC screen)
NSC-207895 = compound: CN1CCN(c2ccc([N+](=O)[O-])c3no[n+]([O-])c23)CC1 [NSC-207895]; conditions: top dose 20 µM; top dose inferred
Experimental: (§1)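 Human cancer cell lines in 384-well plates, medium with 10% serum, drug for 72 h over a 256-fold dose range (nine 2-fold or five 4-fold steps up to the top dose). Adherent lines were fixed and stained with the nucleic acid dye Syto60, suspension lines read with resazurin; signal relative to control wells, capped at 0 and 100%. One two-parameter sigmoid per drug and line, fitted in a mixed model over all curves with the slope shared within a line.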

YM155 = compound: COCC[n+]1c2c(n(Cc3cnccn3)c1C)C(=O)c1ccccc1C2=O [YM155]; conditions: top dose 5.12 µM
Experimental: as §1

JQ1 = compound: Cc1sc2c(c1C)C(c1ccc(Cl)cc1)=N[C@@H](CC(=O)OC(C)(C)C)c1nnc(C)n1-2 [JQ1]
Experimental: as §1

Belinostat = compound: O=C(/C=C/c1cccc(S(=O)(=O)Nc2ccccc2)c1)NO [Belinostat]; conditions: top dose 20 µM; top dose inferred
Experimental: as §1

CGP-60474 = compound: OCCCNc1cc(-c2ccnc(Nc3cccc(Cl)c3)n2)ccn1 [CGP-60474]; conditions: top dose 0.256 µM; top dose inferred
Experimental: as §1

Cyclopamine = compound: CC1=C2C[C@H]3[C@@H](CC=C4C[C@@H](O)CC[C@@]43C)[C@@H]2CC[C@]12O[C@@H]1C[C@H](C)CN[C@H]1[C@H]2C [Cyclopamine]; conditions: top dose 16 µM; top dose inferred
Experimental: as §1

FTI-277 = compound: COC(=O)[C@H](CCSC)NC(=O)c1ccc(NC[C@@H](N)CS)cc1-c1ccccc1 [FTI-277]; conditions: top dose 1.024 µM; top dose inferred
Experimental: as §1

OSI-906 = compound: C[C@]1(O)C[C@@H](c2nc(-c3ccc4ccc(-c5ccccc5)nc4c3)c3c(N)nccn32)C1 [OSI-906]; conditions: top dose 2.56 µM; top dose inferred
Experimental: as §1

SB-715992 = compound: Cc1ccc(C(=O)N(CCCN)[C@@H](c2nc3cc(Cl)ccc3c(=O)n2Cc2ccccc2)C(C)C)cc1 [SB-715992]; conditions: top dose 0.128 µM; top dose inferred
Experimental: as §1

JNJ-26854165 = compound: c1ccc2c(CCNc3ccc(Nc4ccncc4)cc3)c[nH]c2c1 [JNJ-26854165]; conditions: top dose 10 µM
Experimental: as §1

AMG-706 = compound: CC1(C)CNc2cc(NC(=O)c3cccnc3NCc3ccncc3)ccc21 [AMG-706]; conditions: top dose 2 µM; top dose inferred
Experimental: as §1

JNK Inhibitor VIII = compound: CCOc1nc(NC(=O)Cc2cc(OC)ccc2OC)cc(N)c1C#N [JNK Inhibitor VIII]; conditions: top dose 10 µM; top dose inferred
Experimental: as §1

Docetaxel = compound: CC(=O)O[C@@]12CO[C@@H]1C[C@H](O)[C@@]1(C)C(=O)[C@H](O)C3=C(C)[C@@H](OC(=O)[C@H](O)[C@@H](NC(=O)OC(C)(C)C)c4ccccc4)C[C@@](O)([C@@H](OC(=O)c4ccccc4)[C@H]21)C3(C)C [Docetaxel]; conditions: top dose 0.0125 µM
Experimental: as §1

[1] = top dose 2.56 µM, screen: GDSC drug entry 163
[2] = top dose 1 µM, screen: GDSC drug entry 1218, top dose inferred

Row | Cell Line | AUC (NSC-207895) | IC50 (NSC-207895) | AUC (YM155) | IC50 (YM155) | AUC (JQ1; [1]) | IC50 (JQ1; [1]) | AUC (Belinostat) | IC50 (Belinostat) | AUC (CGP-60474) | IC50 (CGP-60474) | AUC (Cyclopamine) | IC50 (Cyclopamine) | AUC (FTI-277) | IC50 (FTI-277) | AUC (OSI-906) | IC50 (OSI-906) | AUC (SB-715992) | IC50 (SB-715992) | AUC (JQ1; [2]) | IC50 (JQ1; [2]) | AUC (JNJ-26854165) | IC50 (JNJ-26854165) | AUC (AMG-706) | IC50 (AMG-706) | AUC (JNK Inhibitor VIII) | IC50 (JNK Inhibitor VIII) | AUC (Docetaxel) | IC50 (Docetaxel)
1 | BC-3 (B-cell lymphoma, suspension) | 0.971 | > 20000 nM | 0.14 | 28.7 nM | 0.848 | 1600 nM | 0.315 | 405 nM | 0.753 | 77.3 nM | 0.979 | > 16000 nM | 0.988 | > 1020 nM | 0.978 | > 2560 nM | 0.702 | 27.5 nM |  |  |  |  |  |  |  |  |  | 
2 | CAL-148 (breast, suspension) | 0.989 | > 20000 nM | 0.024 | < 20 nM | 0.755 | 811 nM | 0.275 | 304 nM | 0.799 | 112 nM | 0.988 | > 16000 nM | 0.988 | > 1020 nM | 0.99 | > 2560 nM | 0.976 | > 128 nM |  |  |  |  |  |  |  |  |  | 
3 | COLO-829 (melanoma, adherent) | 0.888 | > 20000 nM | 0.134 | < 20 nM | 0.764 | 1380 nM | 0.56 | 1970 nM | 0.835 | > 256 nM | 0.856 | > 16000 nM | 0.882 | > 1020 nM | 0.979 | > 2560 nM | 0.941 | > 128 nM | 0.971 | > 1000 nM | 0.951 | > 10000 nM |  |  |  |  |  | 
4 | D-392MG (glioma, adherent) | 0.981 | > 20000 nM | 0.293 | 66.7 nM | 0.731 | 939 nM | 0.624 | 3110 nM |  |  | 0.91 | > 16000 nM | 0.963 | > 1020 nM | 0.981 | > 2560 nM | 0.952 | > 128 nM | 0.976 | > 1000 nM | 0.894 | > 10000 nM | 0.936 | > 2000 nM | 0.97 | > 10000 nM | 0.832 | 12.4 nM
5 | D-542MG (glioma, adherent) | 0.983 | > 20000 nM | 0.557 | 474 nM | 0.687 | 604 nM | 0.399 | 618 nM |  |  | 0.921 | > 16000 nM | 0.968 | > 1020 nM | 0.98 | > 2560 nM | 0.975 | > 128 nM | 0.978 | > 1000 nM | 0.902 | > 10000 nM | 0.944 | > 2000 nM | 0.982 | > 10000 nM | 0.925 | > 12.5 nM
6 | ECC12 (stomach, suspension) |  |  |  |  | 0.699 | 676 nM |  |  |  |  | 0.974 | > 16000 nM | 0.956 | > 1020 nM |  |  |  |  |  |  |  |  |  |  |  |  |  | 
7 | EW-12 (Ewing sarcoma, suspension) |  |  |  |  |  |  |  |  | 0.975 | > 256 nM | 0.969 | > 16000 nM |  |  |  |  |  |  |  |  |  |  |  |  |  |  |  | 
8 | HCC1599 (breast, suspension) | 0.935 | > 20000 nM | 0.053 | < 20 nM | 0.798 | 1430 nM | 0.293 | 296 nM | 0.649 | 44.2 nM | 0.939 | > 16000 nM | 0.97 | > 1020 nM | 0.981 | > 2560 nM | 0.676 | 26.8 nM |  |  |  |  |  |  |  |  |  | 
9 | HCC2998 (large intestine, adherent) | 0.973 | > 20000 nM | 0.09 | < 20 nM | 0.77 | 944 nM | 0.587 | 2150 nM |  |  | 0.988 | > 16000 nM | 0.978 | > 1020 nM | 0.752 | 826 nM | 0.807 | 63.2 nM | 0.985 | > 1000 nM | 0.976 | > 10000 nM |  |  |  |  |  | 
10 | HCC-33 (small cell lung carcinoma, adherent) | 0.828 | 12500 nM | 0.029 | < 20 nM | 0.928 | > 2560 nM | 0.233 | 207 nM | 0.862 | 223 nM | 0.967 | > 16000 nM | 0.984 | > 1020 nM | 0.863 | 2270 nM | 0.835 | 85.3 nM |  |  |  |  |  |  |  |  |  | 
11 | Hs-445 (Hodgkin lymphoma, suspension) | 0.94 | > 20000 nM | 0.031 | < 20 nM | 0.817 | 1300 nM | 0.299 | 357 nM | 0.746 | 75.8 nM | 0.988 | > 16000 nM | 0.987 | > 1020 nM | 0.989 | > 2560 nM | 0.502 | 8.12 nM | 0.985 | > 1000 nM |  |  |  |  |  |  |  | 
12 | KLE (endometrium, adherent) | 0.694 | 5990 nM | 0.054 | < 20 nM | 0.608 | 372 nM | 0.535 | 1640 nM | 0.671 | 62.6 nM |  |  | 0.962 | > 1020 nM | 0.964 | > 2560 nM | 0.926 | > 128 nM | 0.97 | > 1000 nM | 0.882 | > 10000 nM | 0.97 | > 2000 nM | 0.965 | > 10000 nM | 0.854 | > 12.5 nM

Reference: the supplement of paper PMC4967469
